One assay has as its target T1, FOXP1 (human), Q9H334.
T1 chain: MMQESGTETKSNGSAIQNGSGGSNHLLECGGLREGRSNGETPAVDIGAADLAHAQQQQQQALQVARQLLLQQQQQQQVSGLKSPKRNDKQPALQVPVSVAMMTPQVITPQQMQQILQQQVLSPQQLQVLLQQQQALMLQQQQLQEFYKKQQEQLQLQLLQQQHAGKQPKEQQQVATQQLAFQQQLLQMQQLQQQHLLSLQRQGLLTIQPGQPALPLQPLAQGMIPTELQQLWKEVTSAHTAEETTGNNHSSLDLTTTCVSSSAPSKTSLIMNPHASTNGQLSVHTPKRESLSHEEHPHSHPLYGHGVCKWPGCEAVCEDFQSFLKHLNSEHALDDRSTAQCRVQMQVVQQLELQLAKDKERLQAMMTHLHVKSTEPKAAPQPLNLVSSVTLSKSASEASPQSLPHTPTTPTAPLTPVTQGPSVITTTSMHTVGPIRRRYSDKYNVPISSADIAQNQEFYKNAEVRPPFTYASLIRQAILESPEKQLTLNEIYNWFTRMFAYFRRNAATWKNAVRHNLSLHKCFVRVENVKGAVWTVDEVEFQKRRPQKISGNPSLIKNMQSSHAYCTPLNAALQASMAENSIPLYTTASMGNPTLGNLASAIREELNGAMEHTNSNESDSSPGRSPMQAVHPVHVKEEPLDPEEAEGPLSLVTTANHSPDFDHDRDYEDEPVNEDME
Put plainly: FRET or BRET; BRET in live HEK293 cells transfected with equimolar YFP and Rluc fusion constructs; read 48 h after transfection, after 4 h at 37 °C with 60 µM EnduRen; corrected BRET ratio, YFP-NLS and Rluc-NLS as control proteins. The settings on record: remark: other sources report otherwise.

The target in another assay is T2, FOXP2 (human), O15409.
T2 chain: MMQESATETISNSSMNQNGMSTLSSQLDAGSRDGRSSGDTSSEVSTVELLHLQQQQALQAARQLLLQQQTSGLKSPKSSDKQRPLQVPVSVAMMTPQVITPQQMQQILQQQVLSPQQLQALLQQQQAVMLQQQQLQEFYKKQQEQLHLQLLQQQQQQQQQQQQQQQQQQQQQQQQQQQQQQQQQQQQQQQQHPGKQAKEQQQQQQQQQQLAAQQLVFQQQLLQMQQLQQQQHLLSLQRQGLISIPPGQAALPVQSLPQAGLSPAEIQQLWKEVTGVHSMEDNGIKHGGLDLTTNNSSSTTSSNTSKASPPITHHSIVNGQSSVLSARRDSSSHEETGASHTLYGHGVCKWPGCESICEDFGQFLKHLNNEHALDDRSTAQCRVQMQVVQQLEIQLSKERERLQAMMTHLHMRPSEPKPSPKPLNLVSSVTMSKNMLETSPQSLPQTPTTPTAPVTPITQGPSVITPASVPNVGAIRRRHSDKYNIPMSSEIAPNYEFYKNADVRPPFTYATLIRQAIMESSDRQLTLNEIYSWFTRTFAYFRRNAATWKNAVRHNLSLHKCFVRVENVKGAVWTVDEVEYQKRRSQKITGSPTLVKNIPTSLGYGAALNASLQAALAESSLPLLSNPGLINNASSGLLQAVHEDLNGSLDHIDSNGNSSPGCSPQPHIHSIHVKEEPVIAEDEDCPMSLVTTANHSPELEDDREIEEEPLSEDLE
The assay is described as above. The settings on record: remark: other sources report otherwise.

No constants are given. Whether binding was seen depends on the method and setting. Binding seen in cells or lysates may run through a third protein. Some entries that bind do so weakly or less than the wild type.

One molecule from PMC6155134 can be followed below.

B1: TBR1 (T-box brain, 1), wild type, Q16650-1 1-682 (protein)
chain: MQLEHCLSPSIMLSKKFLNVSSSYPHSGGSELVLHDHPIISTTDNLERSSPLKKITRGMTNQSDTDNFPDSKDSPGDVQRSKLSPVLDGVSELRHSFDGSAADRYLLSQSSQPQSAATAPSAMFPYPGQHGPAHPAFSIGSPSRYMAHHPVITNGAYNSLLSNSSPQGYPTAGYPYPQQYGHSYQGAPFYQFSSTQPGLVPGKAQVYLCNRPLWLKFHRHQTEMIITKQGRRMFPFLSFNISGLDPTAHYNIFVDVILADPNHWRFQGGKWVPCGKADTNVQGNRVYMHPDSPNTGAHWMRQEISFGKLKLTNNKGASNNNGQMVVLQSLHKYQPRLHVVEVNEDGTEDTSQPGRVQTFTFPETQFIAVTAYQNTDITQLKIDHNPFAKGFRDNYDTIYTGCDMDRLTPSPNDSPRSQIVPGARYAMAGSFLQDQFVSNYAKARFHPGAGAGPGPGTDRSVPHTNGLLSPQQAEDPGAPSPQRWFVTPANNRLDFAASAYDTATDFAGNAATLLSYAAAGVKALPLQAAGCTGRPLGYYADPSGWGARSPPQYCGTKSGSVLPCWPNSAAAAARMAGANPYLGEEAEGLAAERSPLPPGAAEDAKPKDLSDSSWIETPSSIKSIDSSDSGIYEQAKRRRISPADTPVSESSSPLKSEVLAQRDCEKNCAKDISGYYGFYSHS
Regarding B1, the binding entry in the assay with FOXP1 (human), Q9H334 is “binds”; with FOXP2 (human), O15409 it was “binds”.
